Test results reported in the supplement of paper PMC9174493.
The other results are listed elsewhere or left out. Single values of this set are uncertain. Values with irradiation are relative to irradiated vehicle.

Experiments:
A549-Dual [1] = assay: NF-kB reporter (SEAP) activity, viability-corrected, relative to vehicle (fold change vs vehicle); higher = more activation of STING-IRF / NF-kB immune response reporter
A549-Dual [2] = assay: ISRE reporter (Lucia luciferase) activity, viability-corrected, relative to vehicle (fold change vs vehicle); higher = more activation of STING-IRF / NF-kB immune response reporter
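Wherever NF-kB reporter (SEAP) activity, viability-corrected, relative to vehicle is given: viability correction based on the alamar blue assay, with concentrations leaving 10% survival or less dropped.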

| SMILES | NF-kB reporter (A549-Dual [1]; 0.1 µM, irradiation: 8 Gy/4 fr) | NF-kB reporter (A549-Dual [1]; 0.1 µM, irradiation: none) | NF-kB reporter (A549-Dual [1]; 0.3 µM, irradiation: 8 Gy/4 fr) | NF-kB reporter (A549-Dual [1]; 0.3 µM, irradiation: none) | NF-kB reporter (A549-Dual [1]; 1 µM, irradiation: 8 Gy/4 fr) | NF-kB reporter (A549-Dual [1]; 1 µM, irradiation: none) | NF-kB reporter (A549-Dual [1]; 3 µM, irradiation: 8 Gy/4 fr) | NF-kB reporter (A549-Dual [1]; 3 µM, irradiation: none) | NF-kB reporter (A549-Dual [1]; 10 µM, irradiation: 8 Gy/4 fr) | NF-kB reporter (A549-Dual [1]; 10 µM, irradiation: none) | ISRE reporter (A549-Dual [2]; 0.1 µM, irradiation: 8 Gy/4 fr) | ISRE reporter (A549-Dual [2]; 0.1 µM, irradiation: none) | ISRE reporter (A549-Dual [2]; 0.3 µM, irradiation: 8 Gy/4 fr) | ISRE reporter (A549-Dual [2]; 0.3 µM, irradiation: none) | ISRE reporter (A549-Dual [2]; 1 µM, irradiation: 8 Gy/4 fr) | ISRE reporter (A549-Dual [2]; 1 µM, irradiation: none) | ISRE reporter (A549-Dual [2]; 3 µM, irradiation: 8 Gy/4 fr) | ISRE reporter (A549-Dual [2]; 3 µM, irradiation: none) | ISRE reporter (A549-Dual [2]; 10 µM, irradiation: 8 Gy/4 fr) | ISRE reporter (A549-Dual [2]; 10 µM, irradiation: none) |
| --- | --- | --- | --- | --- | --- | --- | --- | --- | --- | --- | --- | --- | --- | --- | --- | --- | --- | --- | --- | --- |
| CCN(CC)CCNC(=O)c1c(C)[nH]c(/C=C2\C(=O)Nc3ccc(F)cc32)c1C [Sunitinib] | 0.929 | 0.95 | 0.847 | 0.984 | 0.847 | 1.38 | 0.983 | 1.37 | 0.888 | 1.02 | 0.86 | 0.845 | 0.703 | 0.832 | 0.818 | 0.834 | 0.73 | 0.787 | 0.744 | 0.782 |
| COc1ccc2cc1Oc1ccc(cc1)CC1c3cc(c(OC)cc3CCN1C)Oc1c(OC)c(OC)cc3c1C(C2)N(C)CC3 (stereo not given) [Tetrandrine] | 1.06 | 0.946 | 1.21 | 0.931 | 1.15 | 0.852 | 0.745 | 1.03 | 0.723 | 0.678 | 1.14 | 1.02 | 1.01 | 1.14 | 1.11 | 0.87 | 0.744 | 1.78 | 0.844 | 2.91 |
| CC1(C)CCC(C)(C)c2cc(NC(=O)c3ccc(C(=O)O)cc3)ccc21 [Tamibarotene] | 1.31 | 1.23 | 1.1 | 1.48 | 0.998 | 1.74 | 1.23 | 1.35 | 1.08 | 1.09 | 1.31 | 1.65 | 1.2 | 1.59 | 1.25 | 1.76 | 1.22 | 1.48 | 1.2 | 1.54 |
| CN1CCC(=C2c3ccccc3CCc3cccnc32)CC1.O=C(O)/C=C\C(=O)O.O=C(O)/C=C\C(=O)O [Azatadine dimaleate] | 0.857 | 1.1 | 1.01 | 1.55 | 1.21 | 1.04 | 0.925 | 1.04 | 0.973 | 0.883 | 0.969 | 0.926 | 0.916 | 0.913 | 0.825 | 0.806 | 0.881 | 1.16 | 1.07 | 0.929 |
| CCCCOc1ccc(CC(=O)NO)cc1 [Bufexamac] | 0.837 | 0.577 | 0.63 | 0.532 | 0.832 | 0.588 | 0.478 | 0.653 | 0.487 | 0.414 | 0.819 | 0.824 | 0.578 | 0.693 | 0.822 | 0.668 | 0.58 | 0.683 | 0.593 | 0.649 |
| Cl.N=C1CCCN1Cc1[nH]c(=O)[nH]c(=O)c1Cl.O=c1[nH]c(=O)n(C2CC(O)C(CO)O2)cc1C(F)(F)F.O=c1[nH]c(=O)n(C2CC(O)C(CO)O2)cc1C(F)(F)F (stereo not given) | 1.04 | 1.03 | 0.772 | 1.24 | 0.822 | 1.37 | 0.964 | 1.58 | 0.964 | 1.34 | 0.906 | 1.92 | 0.561 | 2.47 | 0.64 | 3.11 | 0.557 | 2.08 | 0.54 | 2.27 |
| Cc1ccc(-c2ncc(Cl)cc2-c2ccc(S(C)(=O)=O)cc2)cn1 [Etoricoxib] | 0.985 | 1.13 | 1.06 | 0.841 | 1.02 | 0.857 | 1.11 | 0.867 | 0.923 | 1.01 | 1.01 | 0.817 | 0.923 | 0.705 | 0.791 | 0.705 | 0.791 | 0.817 | 0.826 | 0.854 |
| Cc1nnc(C(=O)NC(C)(C)c2nc(C(=O)NCc3ccc(F)cc3)c(O)c(=O)n2C)o1 [Raltegravir (MK-0518)] | 1.13 | 1.5 | 1.36 | 1.55 | 1.31 | 1.23 | 1.67 | 1.31 | 0.872 | 0.51 | 1.19 | 1.37 | 1.05 | 1.27 | 1.14 | 1.14 | 0.914 | 1.03 | 0.978 | 0.874 |
| Cl.Cl.O=C(O)COCCN1CCN(C(c2ccccc2)c2ccc(Cl)cc2)CC1 (stereo not given) [Cetirizine DiHCl] | 1.05 | 1.29 | 1.23 | 1.38 | 1.66 | 1.38 | 1.38 | 1.2 | 1.23 | 0.905 | 1.07 | 1.1 | 1.15 | 1.16 | 1.22 | 1.19 | 1.01 | 1.16 | 0.911 | 0.788 |
| O=C(O)CCCN1CCC(OC(c2ccc(Cl)cc2)c2ccccn2)CC1 (stereo not given) [Bepotastine] | 1.16 | 1.97 | 1.25 | 1.6 | 1.25 | 1.12 | 1.73 | 1.17 | 1.04 | 0.762 | 1.13 | 1.44 | 0.942 | 1.19 | 1.18 | 0.964 | 0.94 | 0.943 | 1.12 | 0.853 |
| O=C(O)COc1nn(Cc2ccccc2)c2ccccc12 [Bendazac] | 0.783 | 1.08 | 0.663 | 1.06 | 1.14 | 0.695 | 0.829 | 0.675 | 0.571 | 0.436 | 0.785 | 1.1 | 0.571 | 0.956 | 0.961 | 0.614 | 0.539 | 0.618 | 0.645 | 0.86 |
| O=C(c1cc(Cc2n[nH]c(=O)c3ccccc23)ccc1F)N1CCN(C(=O)C2CC2)CC1 | 0.925 | 1.05 | 0.967 | 1.13 | 0.926 | 1.15 | 1 | 1.07 | 0.986 | 1.22 | 0.985 | 1.16 | 1.13 | 1.35 | 0.98 | 1.22 | 1.1 | 2.2 | 1.05 | 3.15 |
